# Experimental data as given in paper PMC4336329 (PLoS ONE, 2015).
# The whole screen tested about 310,000 compounds, of which about 2,200 (0.71%) showed an effect of 50% or more. The effect is printed as a negative number. This is one part of the list.
# Target: human ether-à-go-go-related gene (hERG) potassium channel (human, UniProt Q12809)
# Assay: primary screen, population patch clamp on CHO cells stably expressing hERG
# Sequence of human ether-à-go-go-related gene (hERG) potassium channel (Q12809 whole entry, looked up): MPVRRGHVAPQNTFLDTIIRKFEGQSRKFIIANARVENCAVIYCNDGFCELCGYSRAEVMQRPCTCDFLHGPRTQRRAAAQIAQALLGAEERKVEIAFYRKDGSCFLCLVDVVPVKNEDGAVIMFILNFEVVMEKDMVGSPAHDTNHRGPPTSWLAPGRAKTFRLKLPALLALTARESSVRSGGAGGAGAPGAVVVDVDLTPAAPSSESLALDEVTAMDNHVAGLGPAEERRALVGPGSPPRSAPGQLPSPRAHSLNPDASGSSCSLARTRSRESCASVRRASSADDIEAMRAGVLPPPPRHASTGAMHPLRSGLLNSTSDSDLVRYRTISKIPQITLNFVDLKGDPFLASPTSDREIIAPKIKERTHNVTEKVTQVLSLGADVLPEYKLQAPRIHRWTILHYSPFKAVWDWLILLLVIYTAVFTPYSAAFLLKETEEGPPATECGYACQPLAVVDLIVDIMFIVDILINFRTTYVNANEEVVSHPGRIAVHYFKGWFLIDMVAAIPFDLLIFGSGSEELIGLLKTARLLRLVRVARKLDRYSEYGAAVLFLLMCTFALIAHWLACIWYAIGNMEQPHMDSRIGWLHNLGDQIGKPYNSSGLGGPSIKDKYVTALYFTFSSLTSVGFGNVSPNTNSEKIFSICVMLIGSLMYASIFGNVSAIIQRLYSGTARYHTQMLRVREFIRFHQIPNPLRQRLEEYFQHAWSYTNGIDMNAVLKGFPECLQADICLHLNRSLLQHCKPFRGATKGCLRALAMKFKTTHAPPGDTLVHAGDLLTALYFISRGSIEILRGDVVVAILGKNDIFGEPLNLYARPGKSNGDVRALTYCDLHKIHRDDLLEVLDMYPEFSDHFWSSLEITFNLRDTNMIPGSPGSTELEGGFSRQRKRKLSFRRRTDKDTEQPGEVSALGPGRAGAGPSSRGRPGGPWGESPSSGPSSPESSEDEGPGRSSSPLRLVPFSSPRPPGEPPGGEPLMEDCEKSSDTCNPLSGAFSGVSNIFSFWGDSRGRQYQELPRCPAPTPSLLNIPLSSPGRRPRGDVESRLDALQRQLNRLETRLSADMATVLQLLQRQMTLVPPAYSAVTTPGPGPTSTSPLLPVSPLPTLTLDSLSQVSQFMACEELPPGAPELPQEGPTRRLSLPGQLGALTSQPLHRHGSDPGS
row,Compound,"hERG current change (%, negative = inhibition) at 1uM [%]"
1,CCOC(=O)C1(CCCc2ccccc2)CCN(C(=O)CCC2=NNC(=O)CC2)CC1,18.2
2,CCOC(=O)N1CCC(N(C(=O)Nc2ccc(Cl)c(Cl)c2)C(C)CC)CC1 (centres unmarked),12
3,Brc1ccc2nc(N3CCN(c4ccccc4)CC3)sc2c1,29.3
4,COc1ccc(C(=O)NC2CCN(CC(=O)NC3CCCCC3)CC2)cc1,-1.11
5,Cc1csc(SC(C)C(=O)NCC(=O)Nc2ccc(F)c(F)c2F)n1 (centres unmarked),21.8
6,CCOC(=O)CSc1nnc(CSc2nc3sc4c(c3c(=O)[nH]2)CCCC4)n1-c1ccccc1,8.67
7,CC1(C)Cc2cccc(OCC(=O)Nc3ccccc3F)c2O1,12.4
8,CCOC(=O)CNC(=O)Cn1cnc2c(cnn2-c2ccc(C)cc2)c1=O,8.67
9,Nc1nnnn1/N=C/c1cccs1,-14.1
10,Cc1ccc(NC(=O)c2cnccn2)c(C)c1,13.6
11,Cc1ccc(CN(C)C(=O)CC2C(=O)NCCN2CC2CCCCC2)cc1 (centres unmarked),13.4
12,O=C(c1cc([N+](=O)[O-])ccc1N1CCN(S(=O)(=O)c2ccc(Cl)c(Cl)c2)CC1)N1CCOCC1,6.99
13,CCC1COCCS(=O)(=O)N1Cc1ccc(F)cc1 (centres unmarked),8.01
14,COc1ccc(/C=C(\C#N)c2c[nH]c3ccccc23)cc1,13.3
15,CCc1ccc(OCC(=O)NNC(=O)c2cc3ccccc3o2)cc1,5.53
16,Cc1ccc(-n2nc(C)c3c2NC2=C(C(=O)CC(C)(C)C2)C3c2ccccc2OCC(=O)O)cc1 (centres unmarked),15.7
17,CC(=O)Nc1ccc(S(=O)(=O)NNC(=O)c2cccc(Br)c2)cc1,23.9
18,Cc1cc2c(ncn2C)c(NS(=O)(=O)c2cc(Cl)ccc2Cl)c1C,-1.29
19,CCCNC(=O)CSc1nc(-c2cccs2)cc(C(F)(F)F)n1,-6.22
20,COc1ccc(N(CC(=O)NCCSC2CCCCC2)S(=O)(=O)c2ccccc2)cc1OC,4.54
21,O=C(Cc1ccccc1)n1nc(-c2ccccc2)nc1NCc1ccco1,15.3
22,CC1CCN(c2c(NCc3ccc(C(=O)N4CCc5ccccc54)cc3)c(=O)c2=O)CC1,6.24
23,CC(C)C(=O)Nc1c2c(nn1-c1ccc([N+](=O)[O-])cc1)CS(=O)(=O)C2,19.6

row,Compound,"hERG current change (%, negative = inhibition) at 1uM [%]"
1,COc1ccc2c(=O)c(-c3ccccc3)c(C)oc2c1,11.8
2,O=C(O)CS(=O)CC(=O)Nc1cccc(C(F)(F)F)c1 (centres unmarked),7.67
3,CCc1ccc([C@@H]2CC=C(C(=O)O)[C@H](c3ccccc3F)N2S(=O)(=O)c2ccc(C)cc2)cc1,8.48
4,Cn1nc(C(=O)NCC2COc3ccccc3O2)c2ccccc2c1=O (centres unmarked),1.44
5,CCOc1ccc2nc(SCC(=O)N3CCN(C(=O)c4ccco4)CC3)sc2c1,-24.9
6,Cc1csc(NC(=O)CCc2nc3ccccc3s2)n1,12.5
7,CC(C)(C)c1nc(SCC(=O)Nc2nc3c(s2)CCCC3)c2ccccc2n1,16.9
8,CCc1ccc2c(c1)C(c1ccncc1)=NNC(c1ccccc1)=N2,12
9,O=C(COc1ccccc1)Nc1ccc(N2CCCCC2)cc1,12.7
10,Cc1oc2ccccc2c1CC(=O)NCCCN(C)C,10.4
11,O=C(NCc1ccco1)C1CC(=O)N(c2ccc(O)cc2)C1 (centres unmarked),-7.17
12,Cc1ccc(-n2nnnc2SCC(=O)NC(=O)Nc2ccc3c(c2)OCCO3)cc1,24.1
13,Clc1ncccc1-c1nnn(-c2ccccc2Br)n1,9.65
14,O=C(O)CC(O)(CC(=O)O)C(=O)O,8.67
15,COCc1c(C(=O)N/N=C\c2cccs2)nnn1-c1nonc1N,13.4
16,COc1ccc(Br)c(C(=O)OCc2cc(=O)oc3cc(C)ccc23)c1,10.9
17,O=c1onc(-c2ccccc2)c2ccccc12,11.6
18,CC(C)n1ncc2c(C(=O)O)cc(C3CC3)nc21,4.21
19,C/C(=C\C(=O)c1ccc(Cl)s1)N(C)C,13.7
20,C=CCOC(=O)C1=C(C)OC(N)=C(C#N)C12C(=O)N(CN1CCOCC1)c1ccccc12 (centres unmarked),2.82
21,CC(C)(C)c1cc(NCCCn2ccnc2)n2ncc(-c3ccc(Cl)cc3)c2n1,10.6
22,Cc1ccc(NC(=O)[C@@]2(CC(=O)O)CC(/C=C/c3ccccc3)=NO2)c(C)c1,5.41
23,O=C(c1cccc(Oc2ccc([N+](=O)[O-])cc2)c1)N1CCOCC1,1.31

row,Compound,"hERG current change (%, negative = inhibition) at 1uM [%]"
1,O=[N+]([O-])c1ccccc1S(=O)(=O)Oc1ccccc1/C=N/n1cnnc1,0.974
2,O=C(NCc1ccccc1Cl)C(=O)NCC1CCCN1S(=O)(=O)c1cccs1 (centres unmarked),17.8
3,Cc1ccc(S(=O)(=O)CCC(=O)OCC(=O)N2c3ccccc3CC2C)cc1 (centres unmarked),11.9
4,O=C(Cn1nnc(-c2ccc(Cl)cc2)n1)NC1CC2CCC1C2 (centres unmarked),8.69
5,Cc1cccc(CCNC(=O)CCS(=O)(=O)c2cc3c(cc2Cl)NC(=O)CO3)c1,10.1
6,Cc1cc2cccc(C)c2nc1SCC(=O)NCC1CCCO1 (centres unmarked),10.4
7,COc1ccc([N+](=O)[O-])cc1COc1cc(C)cc2oc(=O)cc(-c3ccccc3)c12,3.54
8,CC(C)C[C@H](NC(=O)OC(C)(C)C)C(=O)N[C@@H](CO)[C@H](O)[C@@H]1C[C@@H]1C(=O)N(C)C,10.3
9,Cc1[nH]c2ccc(C(=O)NCCN3CCCCCC3)cc2c1C,8.02
10,O=C(NCc1ccco1)c1cccc(S(=O)(=O)N2CCc3ccccc32)c1,1.7
11,CSc1ccc(CN(C)C(=O)CNC(=O)c2ccc3c(c2)OCO3)cc1,5.28
12,Cc1ccc(OCCn2c(CCNC(=O)C(C)C)nc3ccccc32)cc1,-4.8
13,CCc1ccc(C2NC(=S)NC3=C2C(=O)CCC3)cc1 (centres unmarked),17
14,CN(C)N1C(N)=C(C#N)C(c2cccc3ccccc23)C2=C1CC(c1ccccc1)CC2=O (centres unmarked),7.76
15,Cc1nc2ccc(N)cc2s1,2.1
16,O=c1[nH]c(C2CCN(S(=O)(=O)c3ccc(S(=O)(=O)NC4CC4)cc3)CC2)nc2c1nnn2Cc1ccccc1,16.1
17,O=C(CSc1nccc(=O)[nH]1)Nc1ccc(N2CCOCC2)c(Cl)c1,12.3
18,O=C(c1cncc(Br)c1)N1CCN(S(=O)(=O)c2ccc(Cl)cc2)CC1,0.19
19,CCn1c(SCC(=O)NCc2cccs2)nc2c1c(=O)n(C)c(=O)n2C,-19.9
20,COc1cc(/C=C/c2ccc(O)cc2)cc(OC)c1,1.91
21,CCCCN(C(=O)c1cccc(S(=O)(=O)N2CCN(Cc3ccccc3)CC2)c1)c1ccccc1,12.5
22,O=C(COC(=O)c1ccc(Br)cc1)Nc1ccccc1Br,15.1
23,Nc1n[nH]c(N)c1N=Nc1cccc(F)c1,7.5

row,Compound,"hERG current change (%, negative = inhibition) at 1uM [%]"
1,CC(C)(C)NC(=O)NC(=O)CN1CCN(c2ncc(C(F)(F)F)cc2Cl)CC1,13
2,O=C(c1ccccc1)c1ccc(N2CCOCC2)c(NC(=O)c2ccco2)c1,2.13
3,O=c1c2c(-c3ccco3)csc2nc(SCc2cn3cccnc3n2)n1-c1ccccc1,4.86
4,CCCCCc1nnc(NC(=O)Cc2ccc([N+](=O)[O-])cc2)s1,18.3
5,Cc1cc(NC(=S)N(CCN2CCCCC2)Cc2ccco2)ccc1Cl,12.7
6,CSc1nc(O)c(N=Nc2ccc(F)cc2F)c(=O)[nH]1,7.93
7,COc1cc(NS(=O)(=O)c2ccc(C)cc2C)cc(OC)c1OC,1.51
8,CC(C)OC(=O)c1cc(NC(=O)C2C3CCC(O3)C2C(=O)O)cc(C(=O)OC(C)C)c1 (centres unmarked),3.57
9,Br.O=[N+]([O-])c1cccc(-c2csc(Nc3ccccc3)n2)c1,13.8
10,COc1ccc(OC)c(C2C(C#N)=C(N)Oc3c2c(C)nn3-c2ccc(C)cc2)c1 (centres unmarked),4.3
11,Cc1ccccc1C(=O)Nc1ccccc1,6.1
12,Cc1cc(OC(=O)c2c(Cl)cc(Cl)cc2Cl)nc(C)n1,10.1
13,Cc1nc(SCc2ccccc2)c2ccsc2n1,17
14,CCCN1C(=O)c2ccc(C(=O)Nc3cc(C)ccc3O)cc2C1=O,12.9
15,CCCCOCCCNC(=O)C1CCCCC1,0.827
16,COc1ccc(S(=O)(=O)Nc2cc(C(=O)NC3CCCCCC3)ccc2N2CCOCC2)cc1,-21.2
17,CCOC(=O)/C(=N\Nc1ncnc2ccccc12)c1ccc(OC)cc1,5.05
18,N=C(N)c1ccc(O)cc1,10.9
19,NS(=O)(=O)c1ccc(CCNS(=O)(=O)c2ccccc2)cc1,10.8
20,COC(=O)c1ccc(NC(=O)Nc2ccc(OC)cc2)cc1,20.9
